Hit rate of the full screen: of about 190,000 compounds, about 520 (0.27%) were called active. Inconclusive means that the source gave no clear call. Such entries were picked first, then a sample of the others.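 How the source made its calls: active means GTP binding activity at least 20 points away from the 100% control level, either lower or higher; inconclusive means compound flagged as likely green fluorescent, judged across all proteins; inactive means the rest.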
Each molecule was assayed against Ras-related C3 botulinum toxin substrate 1 (Homo sapiens) (UniProt P63000) (assay: compounds altering fluorescent GTP loading on wildtype Rac1 – biochemical, GST-Rac1 beads, flow cytometry, multiplex, primary screen (AID 757)). Details: at 10 µM, actives lie on both sides.
For `CCC1(c2ccccc2)C(=O)N(COC)C(=O)N(COC)C1=O`, the GTP binding activity (% of control) was inactive: 103%.
In the case of `C=Cn1ccnc1P(=S)(c1nccn1C=C)C1CCCCC1`, the GTP binding activity (% of control) is reported as inconclusive: 92%.
For `Cc1ccc(-c2nc3ccccc3c(=O)n2-c2cc(C)ccn2)cc1`, the GTP binding activity (% of control) was inconclusive: 97%.
For `Cc1nn(Cc2ccccc2)c(Cl)c1C(=O)O`, the GTP binding activity (% of control) was inconclusive: 107%.
In the case of `O=c1[nH]c(=O)n(Cc2ccccc2Cl)c(O)c1/C=C1/C=CC=N1`, the GTP binding activity (% of control) is reported as inactive: 87%.
In the case of `C/C(=N\N1CCN(C)CC1)c1c(O)[nH]c(=O)[nH]c1=O`, the GTP binding activity (% of control) is reported as inactive: 107%.
With `CC(Oc1ccc(-c2ccccc2)cc1)C(=O)O` (stereo not given) the GTP binding activity (% of control) was active: 157% [activator].
With `CC(C)N1C(=O)CCC1C(=O)N1CCC2(CC1)OCCO2` (stereo not given) the GTP binding activity (% of control) was inconclusive: 93%.
`Cc1nnc(SCc2nc3ccccc3c(=O)n2-c2ccccc2Cl)n1N` was tested, and the GTP binding activity (% of control) was inconclusive: 105%.
With `Nc1ccc(Br)cc1C(=O)c1ccccc1` the GTP binding activity (% of control) was inconclusive: 91%.
With `COc1cc2c(cc1OC)C(C(=O)N1CCC3(CC1)OCCO3)C(c1ccccc1F)N(C)C2=O` (stereo not given) the GTP binding activity (% of control) was inconclusive: 105%.
In the case of `O=C(c1ccco1)c1cn(Cc2ccc(Cl)cc2)c2ccccc12`, the GTP binding activity (% of control) is reported as inconclusive: 102%.
`O=c1[nH]c(=S)[nH]c(O)c1N=Nc1ccc(S(=O)(=O)N2CCc3ccccc32)cc1` was tested, and the GTP binding activity (% of control) was active: 120% [activator].
With `Nc1c(C(=O)NCc2ccco2)c2nc3ccccc3nc2n1CCN1CCCCC1` the GTP binding activity (% of control) was inconclusive: 90%.
For `CCn1c(NN=O)nc2ccccc21`, the GTP binding activity (% of control) was inactive: 100%.
In the case of `C=CCN1C(=O)/C(=C/c2ccc3c(c2)CCCN3CCC)C(=O)NC1=S`, the GTP binding activity (% of control) is reported as inconclusive: 92%.
`Cc1sc2ncn(CC(=O)N3CCC4(CC3)OCCO4)c(=O)c2c1C` was tested, and the GTP binding activity (% of control) was inconclusive: 106%.
For `COc1ccc(S(=O)(=O)N2CC3CC(C2)c2cccc(=O)n2C3)cc1` (stereo not given), the GTP binding activity (% of control) was inactive: 100%.
`Cc1nn(Cc2ccccc2)c(C)c1C(=O)OCC(=O)Nc1cccc(S(N)(=O)=O)c1` was tested, and the GTP binding activity (% of control) was inconclusive: 99%.
For `CC(=NCc1ccc(F)cc1)c1c(O)n(C)c(=O)n(C)c1=O`, the GTP binding activity (% of control) was inconclusive: 104%.
For `CN1CC=C(c2c[nH]c3ccccc23)CC1`, the GTP binding activity (% of control) was inconclusive: 105%.
`COc1ccc(-c2cc(=NCCCCCC(=O)O)c3cc(C)ccc3o2)cc1` was tested, and the GTP binding activity (% of control) was active: 71%.
With `COc1ccc(-c2cc(=NCCC(=O)O)c3cc(C)ccc3o2)cc1` the GTP binding activity (% of control) was inconclusive: 78%.
`O=C1NC(=S)N(Cc2ccco2)C(=O)/C1=C\c1cccs1` was tested, and the GTP binding activity (% of control) was inconclusive: 86%.
For `O=C(COc1ccc(Br)cc1)N1CCN(C2CCCC2)CC1`, the GTP binding activity (% of control) was inconclusive: 107%.
`COc1cc(C(=S)N2CCOCC2)cc(OC)c1OC(=O)Cc1ccccc1` was tested, and the GTP binding activity (% of control) was inconclusive: 98%.
With `Cc1ccc(NP(=O)(Oc2ccccc2F)Oc2ccccc2F)cc1` the GTP binding activity (% of control) was inconclusive: 105%.
With `c1ccc2oc(N3CCNCC3)nc2c1` the GTP binding activity (% of control) was inconclusive: 107%.
For `Cc1ccccc1NC1(C#N)CCCCC1`, the GTP binding activity (% of control) was inconclusive: 91%.
For `COc1ccc(C(=O)CC2(CC(=O)c3ccc(OC)cc3)C(=O)N(C)C(=O)N(C)C2=O)cc1`, the GTP binding activity (% of control) was inactive: 100%.
With `Cc1ccc(-n2c(O)c(C=NC3CCCC3)c(=O)[nH]c2=O)c(C)c1` the GTP binding activity (% of control) was inconclusive: 108%.
`CCCCCCN1CCN(c2ccc(Cl)cc2)CC1` was tested, and the GTP binding activity (% of control) was inconclusive: 91%.
With `COc1cc2c(C(=O)O)c(C)n(C)c2cc1Br` the GTP binding activity (% of control) was inconclusive: 89%.
In the case of `O=P(Nc1cccnc1)(Oc1ccccc1Cl)Oc1ccccc1Cl`, the GTP binding activity (% of control) is reported as inconclusive: 101%.
For `CCc1nc2ccccc2c(=O)n1-c1ccccc1[N+](=O)[O-]`, the GTP binding activity (% of control) was inconclusive: 106%.
`COc1ccc(CNC(C)Cc2cccs2)cc1` (stereo not given) was tested, and the GTP binding activity (% of control) was inactive: 95%.
For `COc1cc2c(cc1O)CC1c3c(cc(O)c(OC)c3-2)CCN1C` (stereo not given), the GTP binding activity (% of control) was inconclusive: 88%.
With `O=C(CNS(=O)(=O)c1ccc(Br)s1)N1CCC2(CC1)OCCO2` the GTP binding activity (% of control) was inconclusive: 106%.
In the case of `Cc1cccnc1-n1c(-c2ccccc2)nc2ccccc2c1=O`, the GTP binding activity (% of control) is reported as inconclusive: 107%.
For `CCN(CC)C(=O)c1ccc(NC(=O)c2cccc(F)c2)cc1`, the GTP binding activity (% of control) was inconclusive: 102%.
In the case of `CC(=NCc1ccc2c(c1)OCO2)c1c(O)n(C)c(=O)n(C)c1=O`, the GTP binding activity (% of control) is reported as inconclusive: 93%.
For `CN1C2CCC1CC(OC(=O)c1cc(Cl)cc(Cl)c1)C2` (stereo not given), the GTP binding activity (% of control) was inactive: 99%.
For `Cc1cccc(-n2c(O)c(/C=N/Nc3nc4c(c(=O)n(C)c(=O)n4C)n3C)c(=O)[nH]c2=S)c1`, the GTP binding activity (% of control) was inconclusive: 89%.
`Cc1cc(/C=C2\C(=O)NC(=O)N(c3ccc(Cl)cc3)C2=O)c(C)n1-c1sc2c(c1C#N)CCCC2` was tested, and the GTP binding activity (% of control) was inactive: 99%.
With `CN1CSC(=S)N(C)C1` the GTP binding activity (% of control) was inconclusive: 93%.
In the case of `CN(C)c1ccc(/C=C/C=C2/C(=O)NC(=O)N(c3ccccc3)C2=O)cc1`, the GTP binding activity (% of control) is reported as active: 70%.
In the case of `CN(C)C(=O)Oc1ccc(Cl)c2ccccc12`, the GTP binding activity (% of control) is reported as inconclusive: 104%.
With `N=c1c2c(n(Cc3ccc(Cl)cc3Cl)c3c1CCC3)CCCC2` the GTP binding activity (% of control) was inconclusive: 103%.
In the case of `Cc1cc(/C=C2\C(=O)NC(=O)N(c3cccc(F)c3)C2=O)c(C)n1-c1cc(C(=O)O)cc(C(=O)O)c1`, the GTP binding activity (% of control) is reported as inconclusive: 85%.
In the case of `O=c1cccc2n1CC1CC2CN(S(=O)(=O)c2ccccc2)C1` (stereo not given), the GTP binding activity (% of control) is reported as inconclusive: 105%.
`CC(C)c1ccc(N2C(=O)NC(=O)/C(=C\c3cnc(-c4ccccc4)nc3)C2=O)cc1` was tested, and the GTP binding activity (% of control) was inconclusive: 88%.
With `CCCCn1c(O)c(C(CC)=NCCCN(C)C)c(=O)[nH]c1=O` the GTP binding activity (% of control) was inconclusive: 102%.
`O=c1[nH]c(O)c(N=Nc2cc(C(F)(F)F)ccc2Cl)c(=O)[nH]1` was tested, and the GTP binding activity (% of control) was inconclusive: 88%.
In the case of `CSCc1nnc2n1-c1ccc(Cl)cc1C(c1ccccc1)=NC2`, the GTP binding activity (% of control) is reported as inactive: 98%.
With `Cc1ccc(C(=O)n2cc(CCN3CCS(=O)(=O)CC3)c3ccccc32)cc1` the GTP binding activity (% of control) was inconclusive: 99%.
In the case of `COc1cccc(-n2c(O)c(C=NCCN3CCOCC3)c(=O)[nH]c2=O)c1`, the GTP binding activity (% of control) is reported as inconclusive: 103%.
For `CN1C(=O)N(C)C(=O)C2(Cc3c(ccc4ccccc34)N(C)C2)C1=O`, the GTP binding activity (% of control) was inactive: 86%.
`Cc1c(C=O)c2ccccc2n1Cc1ccc(F)cc1` was tested, and the GTP binding activity (% of control) was inconclusive: 95%.
`COc1ccc(CCNCc2ccccn2)cc1OC` was tested, and the GTP binding activity (% of control) was inconclusive: 109%.
`Cc1cccc(-n2c(O)c(C=Nc3ccc(Br)cn3)c(=O)[nH]c2=O)c1` was tested, and the GTP binding activity (% of control) was inactive: 102%.
